# Measurements as given in the supplement of paper PMC11166567.
# Some of the results follow.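 The calls were made as follows: active = permutation test q below 0.05 after Benjamini-Hochberg correction; inactive = q of 0.05 or more.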
# How the values were obtained:
# A549 = experiment: mean average precision of replicate retrieval against DMSO controls (Cell Painting phenotypic activity) (fraction (0-1)); higher = stronger, more reproducible morphological phenotype distinct from DMSO; extreme values may be limits of the assay; details: 5 µM
# U2OS = experiment: as above; details: 5 µM
# 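Also: cosine similarity of well-level aggregated Cell Painting profiles ranks each compound's replicate wells against DMSO wells, four replicate plates, significance from 100,000 rank shuffles.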
SMILES,mean average precision (A549; 24 h),mean average precision (A549; 48 h),mean average precision (U2OS; 24 h),mean average precision (U2OS; 48 h)
N=C(N)N,active: 0.337,active: 0.855,inactive: 0.115,inactive: 0.116
O/N=C/c1ccc(-c2ccc(O)c(F)c2)c(Cl)c1O,inactive: 0.26,active: 0.657,active: 0.534,active: 0.931
N#CC[C@H](C1CCCC1)n1cc(-c2ncnc3[nH]ccc23)cn1,active: 0.605,active: 1,active: 1,active: 0.544
CC(C)[C@H](CO)Nc1nc(Nc2cc(N)cc(Cl)c2)c2ncn(C(C)C)c2n1,active: 1,active: 1,active: 1,active: 0.715
Cc1c(-c2ccnn2C)cc(C(=O)NCc2ccc(S(C)(=O)=O)cn2)c(=O)n1-c1cccc(C(F)(F)F)c1,active: 0.521,active: 0.731,active: 0.342,inactive: 0.164
CNC(=O)[C@H](Cc1ccccc1)NC(=O)[C@H](CC(C)C)[C@H](CSc1cccs1)C(=O)NO,active: 1,active: 1,active: 1,active: 1
OC[C@H]1O[C@@H](n2cnc3c(NC4CCCC4)ncnc32)[C@H](O)[C@@H]1O,inactive: 0.103,active: 0.429,active: 0.354,inactive: 0.133
O=C(NCCN1CCC(n2c(=O)[nH]c3cc(Cl)ccc32)CC1)c1ccc(F)cc1,active: 1,active: 1,active: 1,active: 1
NCC(=O)Nc1ccc(-n2nc(C(F)(F)F)cc2-c2ccc3c(ccc4ccccc43)c2)cc1,active: 1,active: 1,active: 1,active: 1
FC(F)OC(Cl)C(F)(F)F (configuration not stated),inactive: 0.138,active: 0.483,inactive: 0.0824,inactive: 0.124
O=C(NCc1cccc(O)c1)Nc1nc(-c2ccncc2)cs1,active: 1,active: 1,active: 1,active: 1
Cc1cnc(Nc2ccc(OCCN3CCCC3)cc2)nc1Nc1cccc(S(=O)(=O)NC(C)(C)C)c1,active: 1,active: 1,active: 1,active: 1
O=C(O)c1cc(N=Nc2ccc(S(=O)(=O)Nc3ccccn3)cc2)ccc1O,active: 0.484,active: 0.863,inactive: 0.0759,active: 0.447
COc1cc(OC)c(/C=C/S(=O)(=O)Cc2ccc(OC)c(OP(=O)(O)O)c2)c(OC)c1,active: 1,active: 1,active: 1,active: 1
CCCC(=O)O,active: 0.599,active: 0.925,active: 1,active: 0.967
c1cc(OCCN2CCCCC2)cc(-c2n[nH]c3ccc(-c4ncn[nH]4)cc23)c1,active: 1,active: 1,active: 0.806,active: 0.979
CO[C@@H](C(=O)N1Cc2[nH]nc(NC(=O)c3ccc(N4CCN(C)CC4)cc3)c2C1)c1ccccc1,active: 1,active: 1,active: 0.778,active: 0.911
Cc1cc(N2CCOCC2)cc2[nH]c(-c3c(NC[C@@H](O)c4cccc(Cl)c4)cc[nH]c3=O)nc12,active: 1,active: 1,active: 1,active: 1
CCCCCC[C@@H](CCC)C(=O)O,active: 0.332,active: 0.701,inactive: 0.147,inactive: 0.181
Nc1nc(N)c2nc(-c3ccccc3)c(N)nc2n1,active: 0.587,active: 0.979,active: 0.857,active: 0.807
CN(C)c1ccc(O)c2c1C[C@H]1C[C@H]3[C@H](N(C)C)C(=O)C(C(N)=O)C(=O)[C@@]3(O)C(=O)C1C2=O (some centres not stated),inactive: 0.109,active: 0.411,active: 0.533,active: 0.774
CCCCCCCN(CC)CCCC(O)c1ccc(NS(C)(=O)=O)cc1 (configuration not stated),active: 0.628,active: 1,inactive: 0.142,active: 0.457
Cc1nc(Nc2n[nH]c3c2CN(C(=O)N[C@H](CN(C)C)c2ccccc2)C3(C)C)c2sccc2n1,active: 0.35,active: 0.436,active: 0.415,active: 0.379
CCOc1ccc2nc(S(N)(=O)=O)sc2c1,active: 0.889,active: 0.666,active: 0.622,active: 0.326
CC(C)(C)n1nc(-c2ccc(Cl)cc2)c2c(N)ncnc21,active: 1,active: 1,active: 1,active: 1
CC(C)(N)C(=O)N[C@H](COCc1ccccc1)C(=O)N1CCC2(CC1)CN(S(C)(=O)=O)c1ccccc12,active: 0.704,active: 1,active: 0.931,active: 0.37
COc1cccc(-c2cc(=O)c3ccccc3o2)c1N,active: 0.787,active: 1,active: 0.793,active: 0.549

SMILES,mean average precision (A549; 24 h),mean average precision (A549; 48 h),mean average precision (U2OS; 24 h),mean average precision (U2OS; 48 h)
Cc1ccc([N+](=O)[O-])cc1S(=O)(=O)N(C)C,inactive: 0.277,active: 0.53,inactive: 0.281,inactive: 0.284
CCCCCCCCO,active: 0.338,active: 0.446,inactive: 0.316,active: 0.4
C[C@@H]1C[C@H]2[C@@H]3CCC4=CC(=O)C=C[C@]4(C)[C@@]3(F)[C@@H](O)C[C@]2(C)[C@@]1(O)C(=O)CO,active: 0.904,active: 1,active: 0.939,active: 0.889
COc1ccc(-c2coc3cc(O)ccc3c2=O)cc1,inactive: 0.203,active: 1,active: 0.567,inactive: 0.277
CC(=O)c1ccc(S(=O)(=O)NC(=O)NC2CCCCC2)cc1,active: 0.365,active: 0.931,inactive: 0.294,active: 0.605
Cn1cnc([N+](=O)[O-])c1Sc1ncnc2nc[nH]c12,active: 0.447,active: 0.958,active: 0.318,inactive: 0.219
CCCCC[C@H](O)/C=C/[C@@H]1[C@H]2C/C(=C/CCCC(=O)O)O[C@H]2C[C@H]1O,inactive: 0.175,active: 0.425,active: 0.581,inactive: 0.0808
NC(=O)CC[C@H](N)C(=O)O,inactive: 0.135,active: 0.678,active: 0.386,inactive: 0.07
COc1cc(C(=O)OCCCN2CCCN(CCCOC(=O)c3cc(OC)c(OC)c(OC)c3)CC2)cc(OC)c1OC,active: 0.32,active: 0.794,active: 0.501,active: 0.403
CCOc1ccccc1N=Nc1c(C)[nH]n(-c2nc(-c3ccccc3)cs2)c1=O,active: 0.815,active: 0.75,inactive: 0.218,active: 0.466
CCOC(=O)c1c2c3c(cccc3[nH]c1=O)C(=O)c1ccccc1-2,active: 0.481,active: 0.979,active: 0.708,inactive: 0.26
C[C@H](N)C(=O)NCC(=O)N[C@H]1CSSC[C@@H](C(=O)O)NC(=O)[C@H](CO)NC(=O)[C@H]([C@@H](C)O)NC(=O)[C@H](Cc2ccccc2)NC(=O)[C@H]([C@@H](C)O)NC(=O)[C@H](CCCCN)NC(=O)[C@H](Cc2c[nH]c3ccccc23)NC(=O)[C@H](Cc2ccccc2)NC(=O)[C@H](Cc2ccccc2)NC(=O)[C@H](CC(N)=O)NC(=O)[C@H](CCCCN)NC1=O,active: 0.436,active: 0.722,active: 0.624,active: 0.356
Nc1ncnc2c1c(-c1cccc(OCc3ccccc3)c1)cn2C1CC(CN2CCC2)C1 (configuration not stated),active: 1,active: 1,active: 1,active: 1
COc1cc2c(Oc3ccc4[nH]c(C)cc4c3F)ncnc2cc1OCCCN1CCCC1,active: 1,active: 1,active: 1,active: 1
COC(=O)C[C@](O)(CCCC(C)(C)O)C(=O)O[C@@H]1C(OC)=C[C@]23CCCN2CCc2cc4c(cc2[C@H]13)OCO4,active: 1,active: 1,active: 1,active: 1
O=C(O)c1ccccc1Nc1cccc(C(F)(F)F)c1,active: 0.505,active: 0.806,active: 0.669,active: 0.459
C=C[C@H]1CN2CC[C@H]1C[C@@H]2[C@@H](O)c1ccnc2ccc(OC)cc12,active: 0.77,active: 0.979,inactive: 0.219,active: 0.951
CN(C)CC/C=C1/c2ccccc2COc2ccc(CC(=O)O)cc21,inactive: 0.303,active: 0.576,active: 0.509,inactive: 0.111
CCCCCCOc1nsnc1C1=CCCN(C)C1,active: 0.365,active: 0.298,inactive: 0.27,inactive: 0.243
Cc1ccc(NC(=O)c2cccc(N(C)C)c2)cc1NC(=O)c1ccc(O)cc1,active: 1,active: 1,active: 0.958,active: 1
CC(NC(=O)CCc1nc2ccccc2c(=O)[nH]1)c1ccccc1 (configuration not stated),active: 0.623,active: 0.446,inactive: 0.261,active: 0.544
CCCCC1C(=O)N(c2ccccc2)N(c2ccccc2)C1=O,active: 0.334,active: 0.707,inactive: 0.305,inactive: 0.135
CCCCC[C@H](O)/C=C/[C@H]1[C@H](O)CC(=O)[C@@H]1C/C=C\CCCC(=O)O,inactive: 0.219,active: 0.451,inactive: 0.272,active: 0.716
COC1=C2C[C@@H](C)C[C@H](OC)[C@H](O)[C@@H](C)/C=C(\C)[C@H](OC(N)=O)[C@@H](OC)/C=C/C=C(\C)C(=O)NC(=CC1=O)C2=O,active: 0.62,active: 1,active: 1,active: 1
CCOC(=O)[C@H](Cc1ccccc1)NC(=O)c1cc(Cl)c(OCCN2CCN(C)CC2)c(Cl)c1O,active: 0.979,active: 1,active: 0.788,active: 1
Cc1ccnc2c1NC(=O)c1cccnc1N2C1CC1,active: 0.572,active: 0.497,active: 0.487,active: 0.534
